Results published in the supplement of paper PMC10126150.
Sequences with one replicate were seen in a single cluster, so their values are uncertain.

test system: ATP; test: switch fluorescence ratio, 500 uM ATP over buffer (Cy3 cluster intensity, sum of 5 cycles each) (fold (ratio)); higher = stronger signal-on switching upon ATP binding; sequences stand for … in TCGTCGGCAGCGTCAGATGTGTATAAGAGACAGTTTTTTTTTTTTTTTTTTTTTTTTT…TC; conditions: aptamer strand: ATP DNA aptamer (quencher-CACCTGGGGGAGTATTGCGGAGGAAGG + anchor), 100 nM annealed; ATP concentration: 500 uM; one replicate
In short: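 For every switch-domain sequence, the fluorescence ratio is the mean of per-cluster values, each being summed target-cycle Cy3 intensity over summed buffer-cycle Cy3 intensity. Clusters outside 100-1000 RFU were excluded. On a modified Illumina MiSeq flow-cell, the Cy3-labelled switching-strand clusters were annealed to 100 nM quencher-labelled ATP aptamer, imaged in selection buffer and then after 15 min with 500 uM ATP at 22 °C. Five such cycles were run, with NaOH stripping and re-annealing between them.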
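Also: ATP exposure 15 min at 22 °C before imaging.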

| Sequence | switch fluorescence ratio |
| --- | --- |
| TTATTCGAAA | 1 |
| AACTGGAAGT | 1.02 |
| GAAAAACCTA | 0.988 |
| TGGCTGGAA | 0.987 |
| TTAGGTGTGG | 0.973 |
| CAGGGTGCTT | 1.1 |
| GATGGCCGGC | 0.917 |
| AACGATAAGC | 1.06 |
| TAGCGGTGGC | 1.03 |
| CGGTGAACGG | 0.973 |
| AATTTTCCAT | 0.963 |
| GCTCATCCTT | 1.01 |
| TCGCGTTAGG | 1.01 |
| CGTTTTGTAT | 0.999 |
| GAGCAAGTT | 1.06 |
| CATAATATGG | 0.994 |
| TGACGTAGCC | 1.44 |
| GCTCCGAGTG | 1.77 |
| CCGGAGTACG | 2.98 |
| TTTCTCAAGG | 0.968 |
| GGGGAGTGTA | 1.01 |
| CGACATTTTA | 0.963 |
| GATTAAGGGG | 0.979 |
| TTGGGCTATG | 1 |
| AATTAGATAG | 0.98 |
| AGGGATAAT | 1.05 |

| Sequence | switch fluorescence ratio |
| --- | --- |
| ATGAATATGG | 0.975 |
| AGGTATTACT | 1.02 |
| CGCACTGGCT | 1.04 |
| AAACGCCGT | 1.03 |
| CACGTAGGGA | 1.12 |
| TGGAGGTAAT | 0.982 |
| TGGCAAAGGT | 1.01 |
| GTTCGAGCTC | 1.05 |
| CCCCTTGTCT | 1.02 |
| CATCTGTTCT | 0.998 |
| GGGGGCTCGG | 1.01 |
| GCGGCCTATT | 0.973 |
| CAGCGCTCA | 0.992 |
| TTCCTCATGT | 1.23 |
| CCATAACTTT | 1 |
| ACGACAGCTC | 1.76 |
| GGTTTAGACC | 0.98 |
| GCGCTTGCAG | 1.02 |
| CAAACATCTT | 1.04 |
| CTGATAAGGA | 0.979 |
| AGCAGCGAGG | 0.99 |
| ATTATCACCT | 1.16 |
| TTCAGAATG | 1.04 |
| GCAGCCTACG | 1.11 |
| GTGTCGGCTC | 1 |
| GATCTCGT | 0.975 |

| Sequence | switch fluorescence ratio |
| --- | --- |
| TCGTCCTTGT | 0.993 |
| GCACACAGGC | 1.06 |
| GCTACGATCA | 1.06 |
| TCACCGTTTT | 1.07 |
| AACTCAAGGA | 0.991 |
| ACGTTCGAAG | 1.06 |
| GAACGAAGTA | 0.971 |
| TTTTAGTGC | 0.954 |
| GCGTGTTTTG | 1.01 |
| ATAACTCGAC | 1.01 |
| GTTCCGGACT | 0.986 |
| ATGTCTCTGA | 1.01 |
| AAGACGTTCC | 2.07 |
| TATGTATTTG | 1 |
| GAGATATGGT | 1 |
| GTCCCCGTG | 1.05 |
| CTAGGACGCT | 1.04 |
| ACCAGACTGA | 1.1 |
| CATTTGTCTC | 0.97 |
| TAAAAACCAG | 1.08 |
| ATTCTAATGC | 1.03 |
| CCTCGTGAAA | 1.13 |
| CGCTTACCAG | 1.01 |
| TTGGCGCGAA | 1.06 |
| ACTGTCGAAG | 1 |
| CGTGGGGGAA | 0.992 |

| Sequence | switch fluorescence ratio |
| --- | --- |
| TCCAGAGATT | 1.05 |
| TGCAACCGGG | 1.07 |
| TGATTGGCGT | 1.01 |
| TCTTGATAGG | 0.989 |
| GGGAACAGGA | 1.01 |
| GCCGTTGGTG | 1.03 |
| TTACGCAGGT | 0.977 |
| GACGGAGGAA | 1.38 |
| TGTTCGTGC | 1.02 |
| CCCCAGAAAA | 1.17 |
| ACGGCGTTTC | 1.01 |
| ATGTATAATC | 1.03 |
| TCACTGTTTT | 1.03 |
| ATTTTTTT | 0.987 |
| GTATAGTCTA | 0.947 |
| AGCCGCGCGG | 0.997 |
| TGGAGCAGCG | 1.18 |
| ACGAGGCGCG | 0.993 |
| CTGCATTTTC | 1.5 |
| CTACCTGTGG | 0.977 |
| GTTTTTAAAG | 0.996 |
| AGGTACGCAG | 1 |
| CAGTCGCTAG | 1 |
